Data taken from PMC12069340 (Frontiers in Cellular and Infection Microbiology, 2025).
Counter-ions that a name gives are not always drawn.

tested on: influenza virus PR8

Structure (SMILES) | stage of viral replication inhibited
CC(=O)OCOC(=O)CN(CC(=O)OCOC(C)=O)c1ccccc1OCCOc1ccccc1N(CC(=O)OCOC(C)=O)CC(=O)OCOC(C)=O [BAPTA-AM] | early
O=C(c1ccc(OCCCc2cnc[nH]2)cc1)C1CC1 [Ciproxifan] | exhibited inhibition when administered during the initial stages of viral replication
CC(COc1ccccc1)NC(C)C(O)c1ccc(O)cc1 (centres unmarked) [Isoxsuprine, Isoxsuprine hydrochloride] | exhibited inhibition when administered during the initial stages of viral replication
CCCN(CCc1cccs1)[C@H]1CCc2c(O)cccc2C1 [Rotigotine] | exhibited inhibition when administered during the initial stages of viral replication
CCOC(=O)C1=C[C@@H](OC(CC)CC)[C@H](NC(C)=O)[C@@H](N)C1 [oseltamivir, Oseltamivir] | late
